{
  "source": "ChEMBL document CHEMBL1157539",
  "about": "“Thousands of chemical starting points for antimalarial lead identification” (Nature, 2010)",
  "note": "The full ranking holds about 13,000 compounds; the median of “IFI” is about 4, and the highest 2% start at about 17. The list shows a part of the results.",
  "data": [
    {"assay": "GSK_TCMDC: Inhibition Frequency Index (IFI). The number of non-kinase HTS assays where a compound showed > 50 % inhibition, expressed as a percentage of the number of such assays in which the compound was tested (-0 is zero)", "format": "functional", "units": {"IFI": "%"}, "values": [
      {"smiles": "C[C@H](Cc1ccc(OCCCCCCCOc2ccc(C[C@@H](C)NC[C@H](O)c3cccc(Cl)c3)cc2)cc1)NC[C@H](O)c1cccc(Cl)c1", "IFI": 22.1},
      {"smiles": "COc1ccc(NS(=O)(=O)c2ccc(Oc3nc(C)nc4sc5c(c34)CCCC5)cc2)cc1", "IFI": 8.08},
      {"smiles": "CCN(CC)CCCC(C)Nc1ccnc2cc(Cl)ccc12", "note": "(centres undefined)", "IFI": 0},
      {"smiles": "O=C(Nc1ccc(C(F)(F)F)cc1)Nc1cccc([N+](=O)[O-])c1", "IFI": 19.1},
      {"smiles": "COc1ccccc1C1CCN(C2CCC(NC(=O)c3cc4cc(C(C)C)ccc4[nH]3)CC2)CC1", "note": "(centres undefined)", "IFI": 18},
      {"smiles": "COc1ccc(NC(=O)NC2CCN(CCCCCNC(=O)/C=C/c3ccc(Cl)c(Cl)c3)C2)c(OC)c1", "note": "(centres undefined)", "IFI": 3.42},
      {"smiles": "CCn1c(-c2nonc2N)nc2cnc(Oc3cccc(NC(=O)c4ccc(OCCCN5CCCCC5)cc4)c3)cc21", "IFI": 4.72},
      {"smiles": "CC1(C)[C@H]2CC[C@@H](CNc3nc(NCCc4c[nH]cn4)nc(Nc4ccc(Oc5ccccc5)cc4)n3)[C@@H]1C2", "IFI": 2.19},
      {"smiles": "Nc1nc(N)c2cc(Cc3ccc([N+](=O)[O-])cc3)cnc2n1", "IFI": 0.85},
      {"smiles": "COc1ccccc1C1CN(Cc2coc3ccccc3c2=O)Cc2ccccc2O1", "note": "(centres undefined)", "IFI": 5},
      {"smiles": "O=C(Nc1ccc(C(=O)N(Cc2ccc3c(c2)OCO3)C2CCCC2)cc1)c1cccs1", "IFI": 2.27},
      {"smiles": "N#Cc1ccc(-c2ccc(C(=O)NC3CCN(CCN4CCc5c(cccc5C(F)(F)F)C4)CC3)cc2)cc1", "IFI": 8.06},
      {"smiles": "Fc1ccc2[nH]c(-c3cccc(-c4ccc(CN5CCN(CCN6CCOCC6)CC5)cc4)c3)nc2c1", "IFI": 4.23},
      {"smiles": "C[C@@H](COc1ccc(-c2ccccc2)cc1)CON1C(N)=NC(N)=NC1(C)C", "IFI": 7.19},
      {"smiles": "CC1(C)NC(N)=NC(=N)N1OCCCOc1ccccc1N", "IFI": 2.26},
      {"smiles": "Oc1ccc2[nH]c(-c3ccc(OC(F)(F)F)cc3)nc2c1CNC1CCCC1", "IFI": 5.81},
      {"smiles": "O=C(Nc1ccc(-c2nc3ccccc3[nH]2)cc1)c1cccc(S(=O)(=O)N2CCOCC2)c1", "IFI": 2.67},
      {"smiles": "CCC(CC)n1c(C)cc2c3c(N)nc(N)nc3ccc21", "IFI": 3.73},
      {"smiles": "Cc1nc(C)c(-c2ccc(Oc3ccc(OC(F)(F)F)cc3)cc2)c(OC(=O)c2ccc(CN(C)C)cc2)c1Cl", "IFI": 2.33},
      {"smiles": "Cc1cccc(-c2nn(-c3ccccc3)c3[nH]c(=O)c(CNC4CCCC4)cc23)c1", "IFI": 4.46},
      {"smiles": "Oc1ccc2[nH]c(-c3cccc(F)c3)nc2c1CN1CCC(O)(c2ccccc2)CC1", "IFI": 5.66},
      {"smiles": "CCNc1cc(C(=O)N[C@@H](Cc2ccccc2)[C@H](O)CNCCc2cc(OC)cc(OC)c2)cc(N2CCCCS2(=O)=O)c1", "IFI": 2.29},
      {"smiles": "COc1cc(-c2cc(-c3ccc(OCCN(C)C)cc3)[nH]c2-c2ccncc2)ccc1Cl", "IFI": 4.51},
      {"smiles": "CCc1c[nH]c2c(N3CCCC3=O)cc(C(=O)N[C@@H](Cc3ccccc3)[C@H](O)CNC(C)(C)c3cccc(OC)c3)cc12", "IFI": 1.43},
      {"smiles": "NC1=NC2(CCCCC2)N(OCCCCCCN2C(=O)c3ccccc3C2=O)C(N)=N1", "IFI": 1.43},
      {"smiles": "CO/C(=C\\C=C\\c1cc2cc(Cl)c(Cl)cc2[nH]1)C(=O)NCCCN1CCN(c2cccc(OCC(=O)Nc3ccccc3)c2)CC1", "IFI": 7.03},
      {"smiles": "Cc1cc(Nc2ccc(Oc3ccc(Cl)cc3)cc2)nc(N)n1", "IFI": 7.53},
      {"smiles": "Cc1cccc2nc(-c3ccc(-c4cccc(NC(=O)C(C)CN(C)C)c4)cc3)[nH]c12", "note": "(centres undefined)", "IFI": 8.11},
      {"smiles": "Cc1ccc(Nc2nnc(SCC(=O)Nc3ccc(CN4CCCC4)cc3)s2)cc1", "IFI": 1.89},
      {"smiles": "CC(C)C1=CC(=NOS(=O)(=O)c2ccccc2)C=C(C(C)C)C1=O", "IFI": 6.77},
      {"smiles": "CC(CNCc1cn(Cc2cc(Br)cc(Br)c2)c2ccccc12)CNc1cc(=O)c2ccccc2[nH]1", "note": "(centres undefined)", "IFI": 13.2},
      {"smiles": "CCC(=O)Nc1cc(=O)[nH]c2nc(-c3ccc(Cl)cc3)nn12", "IFI": 1},
      {"smiles": "COc1ccc2nccc([C@@H](O)CN3CCC(NCCOc4cccc(F)c4F)CC3)c2c1", "IFI": 1.59},
      {"smiles": "O=S(=O)(NCCN1CCCC1)c1ccc(-c2ccc(CNCc3ccccc3)cc2)cc1F", "IFI": 6.54},
      {"smiles": "Cc1cccc2nc(-c3ccc(-c4ccc(CN5CCN(CCN6CCOCC6)CC5)cc4)s3)[nH]c12", "IFI": 2.82},
      {"smiles": "CCN(CC)CCN(Cc1ccc(-c2ccc(C(F)(F)F)cc2)cc1)C(=O)Cn1c(CCc2c(F)ccc(F)c2F)nc(=O)c2ccccc21", "IFI": 9.09},
      {"smiles": "CN(C)/C(=N/C(=N)NCc1ccc(Cl)c(Cl)c1)NCCCCCCN/C(=N\\C(=N)NCc1ccc(Cl)c(Cl)c1)N(C)C", "IFI": 11.8},
      {"smiles": "Clc1ccc(CNC2CCN(CC3CCCCC3)CC2)cc1", "IFI": 3.38},
      {"smiles": "CCOC(=O)c1c(-c2ccccc2)nc2c(sc3ccccc32)c1O", "IFI": 1.48},
      {"smiles": "O=C(Nc1cccc(-c2cccc(-c3nc4cc(C(F)(F)F)ccc4[nH]3)c2)c1)c1ccncc1", "IFI": 7.41},
      {"smiles": "Clc1ccc(-c2cc3c(NCc4ccncc4)nccc3s2)cc1", "IFI": 8.7},
      {"smiles": "COc1ccc(-c2nc(NC(=O)CS(=O)(=O)c3ccccc3)sc2C)cc1", "IFI": 1.72},
      {"smiles": "CCOc1ccc(C(C)NC(=O)Cc2ccccc2F)cc1OCC", "note": "(centres undefined)", "IFI": 0},
      {"smiles": "CCOC(=O)c1ccc(NC(=O)Nc2ccc(-c3cccc(-c4nc5ccccc5[nH]4)c3)cc2)cc1", "IFI": 7},
      {"smiles": "NC(=O)c1cccc(CN2Cc3ccccc3OC3(CCN(Cc4c[nH]c5cnccc45)CC3)C2)c1", "IFI": 1.64},
      {"smiles": "COc1cccc(NC(=O)Nc2cc(C)nc3ccccc23)c1", "IFI": 3.08},
      {"smiles": "COc1ccc(CN2CCCN(Cc3cccc(NC(=O)c4cc5ccccc5s4)c3)CC2)cc1", "IFI": 9.85},
      {"smiles": "CCCCc1ccc(C(=O)NC2CCN(C[C@H](O)c3ccnc4ccc(OC)cc34)CC2)cc1", "IFI": 5.93},
      {"smiles": "COc1cc(OC)c(NC(=O)COc2ccc(C)cc2)cc1Cl", "IFI": 1.49},
      {"smiles": "Clc1ccccc1/C=C/c1cncnc1Nc1ccc2[nH]c(Cc3ccccc3)nc2c1", "IFI": 4.14},
      {"smiles": "CC1(C)C(=O)Nc2ccc3c(c21)CC1SC(=O)NN=C31", "note": "(centres undefined)", "IFI": 2.22},
      {"smiles": "Cc1cc(C(=O)Nc2ccc3c(c2)CCN3C2CCN(Cc3cccc(F)c3F)C2)no1", "note": "(centres undefined)", "IFI": -0},
      {"smiles": "CC1CN(c2ccc(NC(=O)c3cccs3)cc2)CCN1Cc1cccc(F)c1", "note": "(centres undefined)", "IFI": -0},
      {"smiles": "CC1=C(C(=O)Nc2cc3cn[nH]c3cc2F)C(c2ccc(Cl)c(NS(C)(=O)=O)c2)CC(=O)N1", "note": "(centres undefined)", "IFI": 0.89},
      {"smiles": "CN1CCCN(Cc2cccc(-c3cccc(NS(=O)(=O)c4cccc5cccnc45)c3)c2)CC1", "IFI": 9.3},
      {"smiles": "CNC(=O)c1cncc(/C=C/c2ccccc2S(N)(=O)=O)c1", "IFI": 0},
      {"smiles": "CC(C)(CNC(=O)/C=C/c1ccc(C(F)(F)F)cc1)CNc1cc(=O)c2ccccc2[nH]1", "IFI": 4.35},
      {"smiles": "O=C(Nc1cccc(Cl)c1Cl)Nc1ccnc2ccccc12", "IFI": 5.76},
      {"smiles": "Nc1c2c(nc3ccc(C(=O)Nc4ccc(Br)cc4)cc13)CCCC2", "IFI": 9.03},
      {"smiles": "CN(C(=O)c1cc2c(-c3cncnc3)cccc2[nH]1)c1ccccc1", "IFI": 2.56},
      {"smiles": "CC(C)(C)OC(=O)NCC(=O)N(Cc1ccccc1)Cc1ccccc1", "IFI": 1.57},
      {"smiles": "CCOC(=O)c1ccc(NC(=O)N[C@@H](Cc2ccc(O)cc2)C(=O)NC2CCN(Cc3ccc4c(c3)OCO4)CC2)cc1", "IFI": 2.7},
      {"smiles": "NCC(NC(=O)c1ccc(-c2c[nH]c3ncccc23)s1)c1ccccc1", "note": "(centres undefined)", "IFI": 16.1},
      {"smiles": "O=C(Nc1cccc(Cl)c1N1CCOCC1)C(Cl)(Cl)Cl", "IFI": 1.64},
      {"smiles": "COc1ccc2nccc([C@@H](O)CN3CCC(NCc4cn5cc(F)ccc5n4)CC3)c2c1", "IFI": -0},
      {"smiles": "CCSc1nnc(C2CCCN(CC(=O)Nc3cc(C(F)(F)F)ccc3Cl)C2)n1CC", "note": "(centres undefined)", "IFI": 4.55},
      {"smiles": "Cc1nnsc1C(=O)Nc1cccc(-c2ccc(-c3nc4cc(C(F)(F)F)ccc4[nH]3)cc2)c1", "IFI": 8.11},
      {"smiles": "CCN(CC)CCNc1ccnc2ccc3ccccc3c12", "IFI": -0},
      {"smiles": "COc1ccc(C2=[N+]([O-])c3ccccc3C2=O)cc1", "IFI": 2.16},
      {"smiles": "COc1ccccc1NC(=O)OC(COc1ccc(N)cc1)CN1CC=C(c2ccccc2)CC1", "note": "(centres undefined)", "IFI": 1.57},
      {"smiles": "NC1CCN(Cc2cccc(-c3ccc(-c4nc5cc(C(F)(F)F)ccc5[nH]4)cc3)c2)C1", "note": "(centres undefined)", "IFI": 2.82},
      {"smiles": "COC1(C)Oc2ccc3cccc([N+](=O)[O-])c3c2C1=O", "note": "(centres undefined)", "IFI": 0.74},
      {"smiles": "Cc1nc(C)c(-c2ccc(Cl)cc2Cl)c(O)c1Br", "IFI": -0},
      {"smiles": "N#Cc1ccc(NC(=O)Nc2ccc3c(c2)CCN(C2CCC2)CC3)cc1", "IFI": -0},
      {"smiles": "CCOc1cc(NCCCNc2ncc([N+](=O)[O-])cc2C)nc2ccccc12", "IFI": 4.29},
      {"smiles": "CCN(CCCN1CCCCC1)c1cc(C)nc(Nc2cc(Br)ccc2C)n1", "IFI": 6.33},
      {"smiles": "CS(=O)(=O)NCCCNCc1cccc(-c2cccc(-c3nc4cc(F)ccc4[nH]3)c2)c1", "IFI": 2},
      {"smiles": "CC(CN(C)C)C(=O)Nc1cccc(-c2ccc(-c3nc4cc(F)ccc4[nH]3)cc2)c1", "note": "(centres undefined)", "IFI": 8.04},
      {"smiles": "C=CCOC(=O)N1CCC(CNCc2cccc(-c3ccc(-c4nc5ccccc5[nH]4)s3)c2)C1", "note": "(centres undefined)", "IFI": 6.73},
      {"smiles": "CN(C)CCNC(=O)N1CCCN(c2ncnc3cc(-c4ccccc4)sc23)CC1", "IFI": 2.04},
      {"smiles": "CC(=O)COc1c(C2CCN(CCCCNC(=O)c3ccc(-c4ccc(C(F)(F)F)cc4)cc3)CC2)ccc2c1CCCC2", "IFI": 11.6},
      {"smiles": "O=[N+]([O-])c1ccc(C(O)CNCCc2ccccc2)cc1OCc1ccccc1", "note": "(centres undefined)", "IFI": 4.8},
      {"smiles": "O=C(NC1CC1)c1ccc(N2CCC(Cc3ccccc3)CC2)c([N+](=O)[O-])c1", "IFI": 4.86},
      {"smiles": "C=C[C@H]1CN(CCCCCCC)CC[C@H]1C[C@@H](Cc1ccnc2ccc(OC)cc12)OC(=O)[C@](OC)(c1ccccc1)C(F)(F)F", "IFI": 5.26},
      {"smiles": "CNC(=O)c1cnc(Nc2ccc(N3CCN(C)CC3)cc2)nc1Nc1ccccc1OC", "IFI": 6.67},
      {"smiles": "CCC(C)NC(=O)Nc1cccc(-c2cccc(-c3nc4cccc(C)c4[nH]3)c2)c1", "note": "(centres undefined)", "IFI": 2.94},
      {"smiles": "N=C(N)Nc1nc(-c2cccc(NCCCCCCCCON3C(N)=NC(N)=NC34CCCCC4)c2)cs1", "IFI": 9.86},
      {"smiles": "Cc1cnc(CN(Cc2ccc(-c3ccc(CNCCc4ccc(S(C)(=O)=O)cc4)cn3)cc2)C(=O)c2ccc([N+](=O)[O-])c(C)c2)cn1", "IFI": 2.13},
      {"smiles": "Cc1ccc(CNc2ccc3ncc(-c4cccc(C(=O)NCCN(C)C)c4)n3n2)c(C)c1", "IFI": 12.6}
    ]}
  ]
}
